The labels stand for the following.
T1: UNK ZnF1-6 (called full-length) (human, UniProt Q9C0B0 30-357)
T1 sequence: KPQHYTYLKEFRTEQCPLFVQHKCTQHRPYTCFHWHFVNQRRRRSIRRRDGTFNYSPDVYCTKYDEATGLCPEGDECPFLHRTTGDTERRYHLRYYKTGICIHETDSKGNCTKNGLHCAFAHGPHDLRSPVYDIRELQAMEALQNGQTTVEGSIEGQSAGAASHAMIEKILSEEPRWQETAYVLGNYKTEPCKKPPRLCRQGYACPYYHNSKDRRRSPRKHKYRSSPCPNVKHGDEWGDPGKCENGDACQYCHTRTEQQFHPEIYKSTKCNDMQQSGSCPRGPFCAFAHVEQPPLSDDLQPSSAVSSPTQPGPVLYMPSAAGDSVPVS

B1: chr4:112276399:112276500:-|3pUTR|ENSG00000145365|unk|total|mutant (ssRNA)
RNA: GGGAGUUCUACAGUCCGACGAUCUUAUUCCCUGUGAUGCCCAGAGUAAUGGCCCAUCCAAAGAUGUCCAGAUGUCCAUGUGCCCGUCUCCAGAACUUGUAACUGUGUUGUUAUGUGGCAAAGGGGAAUGAAGGCUGCAGAUGGCAACAGAGGAUUGAGCAUCA
B2: chr5:134606522:134606623:-|3pUTR|ENSG00000152700|msi1_unk|total|mutant (ssRNA)
RNA: GGGAGUUCUACAGUCCGACGAUCAACUAUAAACCAUAUUUAAAAGCUCAUCAUGUUAAAUUUUUUAUGUACUUUUCUGGAACCCGUUUUUAAAUUUCCGAUUAUAUGUCCACCUAUCUUAAGUGUACAGUUAAUAAUCCGCUUCAACAGAGGAUUGAGCAUCA
B3: chr1:13223334:13223905:-|CDS|ENSG00000279804|control|control|control (ssRNA)
RNA: GGGAGUUCUACAGUCCGACGAUCUCUUGAGCCCCUCCGAGCUCUGCUAGAGAAAGUUGCUGCCACUCUUCAGACCCUCUUCUUAGUGGACUGUGGGAUUGGGUACUCCAAACUCAGGGUCAUCCUGCCUGCCCUGAGCCGCUGCAACAGAGGAUUGAGCAUCA
B4: chr1:178849534:178851128:-|three_prime_utr|ENSG00000116194|control|control|control (ssRNA)
RNA: GGGAGUUCUACAGUCCGACGAUCCUACACAGAAAGUUUUUAAAAUGAAUUUUACCGUAACUAUAAAAGGGAACCUAUAAAUGUAGUUUCAUCUGUCGUCAAUUACUGCAGAAAAUUAUGUGUAUCCACAACCUAGUUAUUUUACAACAGAGGAUUGAGCAUCA
B5: chr8:6811200:6812339:-|CDS|ENSG00000275591|control|control|control (ssRNA)
RNA: GGGAGUUCUACAGUCCGACGAUCAUGUAGAGGCUUCUGCCCCAGUGCAGGCUUCCCUGGAAGAACCCUCAGUAUCUCAGAGCUAGAGGAGCCGCUGGAGCCCAAAAGGGAGCUAAGUCACCAUGCAGCUGUUGGUGUGUGGGUCAACAGAGGAUUGAGCAUCA
B6: chr6:4954605:4954706:+|3pUTR|ENSG00000153046|msi1|FALSE|bound_elsewhere (ssRNA)
RNA: GGGAGUUCUACAGUCCGACGAUCGGAUAAAUACUUCUGAUGAAAAAUCCGCUGAGGAGCAUACCCCAAACCAGACAUAUGCUUAGGAUUCAUGCUGAGAUAUCAAUUGGUUUCCCCUUCUUUUUAAAAUACGUCCAGUUCUUACAACAGAGGAUUGAGCAUCA
B7: chr8:116643852:116643953:-|3pUTR|ENSG00000147677|unk|total|mutant (ssRNA)
RNA: GGGAGUUCUACAGUCCGACGAUCUGUUGUGAAUGAGGAAUCCGGAAUCCGGAGAAUGGCCGUACAUUGGGAAAAACAUAUUUCCGUAAUUUUUAUAUUUUAAAGAUAAUCACAGAUUUUGCUGUUUGUGCAUCACCAAAAUCACAACAGAGGAUUGAGCAUCA
B8: chr16:30193532:30193793:-|CDS|ENSG00000169627|control|control|control (ssRNA)
RNA: GGGAGUUCUACAGUCCGACGAUCGCCUUAGUAAGGGCGGAAGUGAGUUUUCCAGCGGAAGUGGCUCCUGUAAGGCAGCAAGGUAGCGUGGCCGGCGCCCGAGCUGGGGUUGUGUCCCUGCUGGGCUGCCGUUCCAGCUGGACUCAACAGAGGAUUGAGCAUCA
B9: ENSG00000180263:stop:overlap|stop_codon|ENSG00000180263|stop_codon|NA|stop_codon (ssRNA)
RNA: GGGAGUUCUACAGUCCGACGAUCCAGAGGAUGCUCAUUCGGCUCAGAAGUGGAUAGAAGCAUUUCAGGAAGGCACAAUAUUGUAGCAGUAUUGGUUUCAUCUCUUCUGUGAUUCCAAAGAGGUGGAAUUUCAUCAGAAUGGAGCAACAGAGGAUUGAGCAUCA
B10: chr6:37331633:37331734:+|3pUTR|ENSG00000065491|unk|FALSE|unique (ssRNA)
RNA: GGGAGUUCUACAGUCCGACGAUCCCGUUCCCCUUCUGCCCCAGUCUGAGCCAGUGAGGGGUAGCUUUUUAAAACCAUUAUUCUAGAUGGAGGAGGCACUGAUGCUUGUAACUCUGGAAAGAGGCCUACACCCAAGGGCUAGGACAACAGAGGAUUGAGCAUCA
B11: ENSG00000070961:be:win_1401|CDS|ENSG00000070961|bound_else_gene|NA|bound_elsewhere_windowed (ssRNA)
RNA: GGGAGUUCUACAGUCCGACGAUCAAAUGCUACAGCUAUUUGUUCAGAUAAAACAGGAACUUUGACAAUGAACAGAAUGACAGUCGUUCAAGCUUACAUAAAUGAAAAACAUUAUAAAAAGGUUCCUGAACCAGAAGCUAUUCCCAACAGAGGAUUGAGCAUCA
B12: chr7:6409910:6410025:-|CDS|ENSG00000164535|unk|total|mutant (ssRNA)
RNA: GGGAGUUCUACAGUCCGACGAUCCUCUGCUGCUCACUACCGCGCCAAGUGGUCACACGAAGCGGAAUUCAGCAAAAUACUCACCGGUCCGAAGAUGCUCACCGACCACAUGCCAGACAUCCUGAUGCGGGCCUUGGACAGCGUCAACAGAGGAUUGAGCAUCA
B13: chr2:169206329:169207250:-|CDS|ENSG00000081479|control|control|control (ssRNA)
RNA: GGGAGUUCUACAGUCCGACGAUCAACUGUCAUGUCUCUAGACUAUGACAGUGUAAGUGAUAGAAUCUACUUCACACAAAAUUUAGCCUCUGGAGUUGGACAGAUUUCCUAUGCCACCCUGUCUUCAGGGAUCCAUACUCCAACCAACAGAGGAUUGAGCAUCA
B14: chr17:57972098:57972209:-|3pUTR|ENSG00000136451|unk|FALSE|bound_elsewhere (ssRNA)
RNA: GGGAGUUCUACAGUCCGACGAUCCUAGAAUGUGGUUGUCAGAACCCUGAAAGUAUUAGUUCUAAAAAAAAAAAGAUAUAUACUAGAAGUAAUUGUUUUAUCAAUUCAUUGUAUAAUAAACAGGAGUGAGACUUCAUUGUAUGACAACAGAGGAUUGAGCAUCA

The list shows a part of the results.

The target in the test is T1, UNK ZnF1-6 (called full-length). As to the kind of experiment: nsRBNS (natural sequence RNA bind-n-seq); RBNS binding buffer (assumed for nsRBNS): 25 mM Tris pH 7.5, 150 mM KCl, 3 mM MgCl2, 0.01% Triton X-100, 500 ug/ml BSA, 20 U/ml SUPERase-In, 4 C; UNK is unkempt and MSI1 is Musashi-1; names of the RNAs are library labels; protein concentration not given here; high values mean tight binding.
The molecule B1 displayed a binding signal of 0.551 enrichment R.

As to B2, the binding signal was 2.06 enrichment R.

In the case of B3, the binding signal is 1 enrichment R.

As for B4, the binding signal turned out to be 2.6 enrichment R.

For the molecule B5, the binding signal stood at 0.868 enrichment R.

As for B6, the binding signal stood at 0.311 enrichment R.

In turn, B7 displayed a binding signal of 0.568 enrichment R.

B8 gave a binding signal of 0.892 enrichment R.

On to B9, for which the binding signal was 0.946 enrichment R.

B10 gave a binding signal of 2.05 enrichment R.

In the case of B11, the binding signal is 0.274 enrichment R.

Regarding B12, the binding signal came to 0.72 enrichment R.

For B13, the binding signal was found to be 0.474 enrichment R.

For the molecule B14, the binding signal came out at 4.83 enrichment R.

Source of the values: publication PMC12136788.
